The campaign covered roughly 360,000 compounds. About 6,000 (1.7%) were called active. The inconclusive results got no clear call from the source; some entries with a clear call stand among them for comparison. The call rests on the fitted dose curve; in most records, active means well fitted cell-killing curve with a large enough effect; inconclusive means small, poorly fitted or top-dose-only effect, or effect the other way; inactive means flat fitted curve, though single readings scatter. Potencies of inconclusive entries are left out as doubtful fits.
test: qHTS for induction of synthetic lethality in tumor cells producing 2HG: qHTS for the HT-1080-NT fibrosarcoma cell line; conditions: HT-1080-NT fibrosarcoma viability, CellTiter-Glo ATP luminescence, 48 h; activity, negative = less viability: at 46.1 µM (top of the series) unless noted;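 further: NT is the 2HG producing partner of a matched IDH1 knockdown line; nearly all actives have a fitted effect of over 55% in size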;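 on activity, negative = less viability: 0% = DMSO-treated cells and -100% = media-only wells without cells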
How it was run: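 Luminescent CellTiter-Glo readout after 48 hours of compound exposure at 37 degrees C defined viability of HT-1080-NT cells. Activity was normalized to DMSO wells and cell-free media wells; concentration-response curves were fitted and assigned curve classes.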
Potency means the concentration at half of the fitted maximal effect; tags describe the fitted curve by direction and shape.

Row | Compound | Potency | activity, negative = less viability
1 | Cc1cccc(C)c1-n1nnnc1-c1nc2cc3ccccc3cc2[nH]c1=O | active: 0.651 µM | –
2 | COc1ccc(NS(=O)(=O)c2cccc(NC(=O)c3ccc(Cl)nc3)c2)cc1 | active: 1.64 µM | –
3 | COc1ccc(N=C2SC(C(=O)O)CC(=O)N2C)cc1 (centres undefined) | inconclusive [rising, partial curve, poor fit] | –
4 | CC1CC(C)C[N+](=C2C=C(N3CCCC3)CC(C)(C)C2)C1 (centres undefined) | active: 9.2 µM | –
5 | Cc1cccc(-c2cc3nc(-c4ccccc4)cc(=O)n3[nH]2)c1 | inconclusive [cytotoxic, single point] | –
6 | CN(Cc1ccc(F)cc1)C(=O)c1cc(COc2ccc(-n3cncn3)cc2)on1 | inactive | –
7 | O=C(Nc1ccccc1)Nc1cccc(Cl)c1Cl | inconclusive [cytotoxic, partial curve] | –
8 | COc1ccc(S(=O)(=O)N2CCCCC2c2cc(C(=O)N3CCOCC3)no2)cc1 (centres undefined) | inconclusive [rising, partial curve] | –
9 | COc1ccc(N2C(=O)c3ccc(C(=O)Nc4ccc(NC(C)=O)cc4)cc3C2=O)cc1 | inactive | –
10 | O=C(Nc1nc(-c2ccccn2)cs1)C1COc2ccccc2O1 (centres undefined) | inconclusive [cytotoxic, single point] | –
11 | Cc1cc(NC(=O)CSc2ccc3c(c2)OCCO3)no1 | inactive | –
12 | Cc1cc(C)nc(SC2CC(=O)N(c3ccc(C)c(C)c3)C2=O)n1 (centres undefined) | inconclusive [cytotoxic, partial curve] | –
13 | Cc1ccc(-c2noc(CN(C(=O)Cc3ccccc3)C(C)C)n2)cc1 | inactive | –
14 | COc1cc(/C=C(/C#N)c2ccc(F)cc2)ccc1OCc1ccc(C(=O)O)o1 | inconclusive [cytotoxic, single point] | –
15 | COc1cc(OC)c(-c2nc3cnccc3n2C)cc1OC | – | inactive: 10.5% [at 9.24 µM]
16 | CN(Cc1ccc(C#CCCO)cc1)CC1CCCN(CCc2ccc(Cl)cc2)C1 (centres undefined) | active: 25.9 µM | –
17 | NS(=O)(=O)c1cc(C(=O)OCC(=O)N2CCc3ccccc3C2)ccc1Cl | inactive | –
18 | Cc1[nH]nc2c1C(c1ccoc1)C(C#N)=C(N)O2 (centres undefined) | inactive | –
19 | COc1ccc(Cl)cc1N(C(C)C(=O)O)S(C)(=O)=O (centres undefined) | inconclusive [rising, single point] | –
20 | CCOC(=O)c1ccc2nc(C)c(CCC(C)=O)c(Cl)c2c1 | inactive | –
21 | Cc1ccsc1C(=O)NNC(=O)C1CC=CCC1C(=O)O (centres undefined) | – | inconclusive: 30.7%
22 | CCN1C(=O)[C@H]2[C@@H](c3ccc(-c4cccc(Cl)c4)c(OC)c3)N3CCCC[C@@]3(C(=O)OC)[C@H]2C1=O | inactive | –
23 | O=[N+]([O-])c1ccc(-c2nc(Nc3cccc(O)c3)c3ccccc3n2)cc1 | inconclusive [cytotoxic, single point] | –
24 | CS(=O)(=O)c1ccc(Cl)c(NC(=O)CSc2nc3ccccc3c(=O)n2Cc2ccco2)c1 | inactive | –
25 | Cc1ccc2sc(NC(=O)C3CC3)nc2c1C | inactive | –

Row | Compound | Potency | activity, negative = less viability
26 | Cc1ccc(C2=Nc3c(ccc4ccccc34)C(c3ccncc3)=NN2)cc1 | inconclusive [cytotoxic, single point] | –
27 | COCCN1C[C@@H](CO)O[C@@H](n2cnc3c(N4CCOCC4)ncnc32)C1 | inconclusive [rising, partial curve] | –
28 | CCc1ccc2c(c1)/C(=C/C(=O)c1cccs1)C(=O)N2 | inconclusive [cytotoxic, single point] | –
29 | COc1cc(/C=N/NC(=O)c2ccncc2)ccc1OCc1cnc(Cl)s1 | inactive | –
30 | C=CCS(=O)(=O)N1CCCC(Cc2ccccc2C)(C(=O)OCC)C1 (centres undefined) | inactive | –
31 | COCCNC(=O)C1(C)CCN(C(=O)c2cc(C(C)(C)C)nn2C)C1 (centres undefined) | inconclusive [rising, partial curve] | –
32 | C=CCOC(=O)C1=C(C)NC(=O)NC1c1cn(-c2ccccc2)nc1-c1cccs1 (centres undefined) | inconclusive [cytotoxic, single point] | –
33 | O=S(=O)(Nc1c(O)ccc2ccccc12)c1cccc2ccccc12 | inconclusive [cytotoxic, single point] | –
34 | CN(CCC#N)C(=O)COC(=O)c1ccccc1C(=O)c1ccc(Cl)c([N+](=O)[O-])c1 | active: 10.3 µM | –
35 | Cc1cc(-c2nnc(SCC(=O)Nc3ccc(Br)cc3F)n2N)n[nH]1 | inconclusive [cytotoxic, single point] | –
36 | COc1ccc(CNC(=O)C2CCCN(S(=O)(=O)c3ccc(Br)s3)C2)cc1 (centres undefined) | inconclusive [cytotoxic, single point] | –
37 | CC12CCC(=O)C=C1CCC1C2C(O)CC2(C)C(c3csc(N)n3)CCC12 (centres undefined) | active: 6.51 µM | –
38 | CN(C)c1nc(NCc2ccccc2)nc(SCC(=O)Nc2ccc(Cl)c(Cl)c2)n1 | inconclusive [cytotoxic, single point] | –
39 | CC(C)C(=O)Nc1ccc(C(=O)N/N=C/c2cc(Br)cc(Br)c2O)cc1 | inconclusive [cytotoxic, full curve, poor fit] | –
40 | Cc1cc(-n2c(C)cc(C(=O)CCl)c2C)no1 | active: 5.8 µM | –
41 | COc1ccc(C2=NS(=O)(=O)N(C)C(C(=O)NCc3cccs3)=C2)cc1OC | inactive | –
42 | CCOc1ccc(C2=CC(=O)C[C@H](c3ccc(OC)cc3)C2)cc1 | inactive | –
43 | CCCCN(C=O)c1c(CC)nc2c(OCc3ccc(C(F)(F)F)cc3)cccn12 | inconclusive [cytotoxic, single point] | –
44 | O=P(O)(CCc1ccncc1)CN1CCCCC1 | inconclusive [rising, single point] | –
45 | CCc1ccc(Nc2n[n+](-c3ccccc3)c(-c3ccc(N(CC)CC)cc3)s2)cc1 | inconclusive [cytotoxic, single point] | –
46 | Cc1[nH]c2ccccc2c(=O)c1CN(C)Cc1ccccc1 | inactive | –
47 | NS(=O)(=O)c1ccc(CCNC(=O)CCCCCn2c(=S)[nH]c3ccc(Br)cc3c2=O)cc1 | inactive | –
48 | Cc1cccc(/C=N/NC(=O)c2ccc(NC(=O)c3ccc(Cl)cc3)cc2)n1 | active: 18.4 µM | –
49 | CCOC(=O)C1=C(C)NC(SC(C)=O)=NC1c1ccc(OC(C)=O)c(OC)c1 (centres undefined) | inconclusive [cytotoxic, single point] | –
50 | CCc1nc2ccc(C(=O)Nc3cc(-c4ccccc4)ccc3OC)cn2c1N(C)Cc1nccs1 | inconclusive [cytotoxic, single point] | –

Row | Compound | Potency | activity, negative = less viability
51 | COC(=O)c1cc[n+](CC(=O)c2ccccc2)cc1 | inconclusive [rising, partial curve] | –
52 | COc1ccc(Oc2c(Cl)cnn(-c3ccc(F)cc3)c2=O)cc1 | inconclusive [cytotoxic, single point] | –
53 | O=c1cc(CCl)nc2sc3ccccc3n12 | active: 16.4 µM | –
54 | OC(c1ccccc1)(c1ccccc1)C1CCN(CCCOc2ccccc2Cl)CC1 | active: 20.6 µM | –
55 | Cc1ccc([C@H]2C[C@H](n3cc(-c4ccc(F)cc4)nn3)[C@@H](O)CN2C(=O)c2cccs2)cc1 | inactive | –
56 | O=C(O)CCCCN1C(=O)/C(=C\c2ccc(OCc3ccccc3)c(OCc3ccccc3)c2)SC1=S | inactive | –
57 | O=C(O)c1ccc2c(c1)C1C=CCC1C(c1cc3c(cc1Br)OCO3)N2 (centres undefined) | inconclusive [cytotoxic, single point] | –
58 | COc1cc(OC)c2c(-c3cccc(-c4sccc4C(C)=O)c3)cc(=O)oc2c1 | active: 4.11 µM | –
59 | O=C1NCCc2c1[nH]c1c(Cl)ccc(Cl)c21 | inconclusive [cytotoxic, single point] | –
60 | Cc1ccc(CS(=O)(=O)Cc2ccc(C(=O)NC3CC3)o2)cc1 | inconclusive [cytotoxic, single point] | –
61 | C/C(=C1/SC(N2CCCC2)=NC1=O)c1ccc(Br)cc1 | inconclusive [cytotoxic, single point] | –
62 | CCCCC(NC(=O)CCc1c(C)c2cc3c4c(oc3c(C)c2oc1=O)CCCC4)C(=O)O (centres undefined) | inactive | –
63 | C=C1CCC[C@]2(C)C[C@H]3OC(=O)C(CN4CCOCC4)[C@H]3C[C@@H]12 (some centres undefined) | inactive | –
64 | COc1cc(-c2cnc3c(NC=O)cc(-c4ccccc4Cl)cn23)cc(OC)c1OC | inconclusive [cytotoxic, full curve] | –
65 | c1csc(-c2csc3nc(CN4CCOCC4)nc(NCc4ccc5c(c4)OCO5)c23)c1 | inconclusive [cytotoxic, single point] | –
66 | CCn1c(SCc2ccc(F)cc2)nnc1-c1nn(-c2ccccc2)ccc1=O | inactive | –
67 | COc1cccc(/C=C/C(=O)OCC(=O)NCCCc2ccccc2)c1OC | inactive | –
68 | CCC(=O)c1ccc(OCc2ccc(C(=O)c3ccccc3)cc2)cc1 | inactive | –
69 | CCn1c2ccccc2nc2cc3c(cc21)c(Cl)c(=O)c1ccccc13 | inconclusive [cytotoxic, single point] | –
70 | C[C@H](c1ccccc1)N1C[C@@H](COCc2ccccc2)Oc2cc(N3CCC[C@H]3CO)ccc2S1(=O)=O | inconclusive [cytotoxic, single point] | –
71 | O=C(Nc1ccc(Cl)c(Cl)c1)OCCNC(=O)c1cccc(Cl)c1 | inconclusive [cytotoxic, single point] | –
72 | Cc1nn(CC(=O)Nc2c(F)c(F)cc(F)c2F)c(=O)c2cccn12 | inactive | –
73 | COc1ccc(NC2=CC(=O)CC(c3ccccc3)C2)c(OC)c1 (centres undefined) | active: 3.55 µM | –
74 | Cc1ccc(C(=O)Nc2ccc(Cl)cn2)cc1 | active: 15.8 µM | –

Source: PubChem BioAssay AID686970 (National Center for Advancing Translational Sciences (NCATS), 2013)
